Measured values as given in PubChem BioAssay AID445 (National Center for Advancing Translational Sciences (NCATS), 2006).
In all, about 110,000 compounds went through this assay and about 40 (0.04%) were called active. Inconclusive means that the source gave no clear call. Such entries were picked first, then a sample of the others. The call rests on the fitted dose curve; in most records, active means well fitted curve in the direction sought with a large enough effect in the signal ratio (not every such curve was filed as active); inconclusive means small, poorly fitted or top-dose-only effect, or a change in a side signal; inactive means flat fitted curve, though single readings scatter; the % refers to the signal ratio. A potency beside an inconclusive call is a rough fit, not a confirmed value.

Experiment: IkB Signaling;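 on IkBa stabilization activation: 0% = basal untreated cells and 100% = reference inhibitor full response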
Conditions: ABC-DLBCL IkBa-CBG/CBR dual luciferase ratio (green luciferase fused to IkBa over red control in OCI-Ly3 lymphoma cells), 4 h; IkBa stabilization activation: at 57.1 µM (top of the series), scaled: untreated 0%, proteasome inhibitor 100% unless noted
Procedure, shortened: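 Luminescence ratio of IκBα-fused green versus native red beetle luciferase in OCI-Ly3 cells, 4 h post-doxycycline with compound; red signal alone, scaled from basal (0%) to zero light (-100%), flagged nonspecific or cytotoxic effects.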
Potency means the concentration at half of the fitted maximal effect.

**Q.** With Cn1cccc1C(=O)N1CCC2(CC1)CN(Cc1cc(C(F)(F)F)cc(C(F)(F)F)c1)C2 as the compound, how does the IkBa stabilization activation read?
**A.** inactive: 0.0276% [at 11.4 µM, scaled: untreated 0%, proteasome inhibitor 100%]

**Q.** Which IkBa stabilization activation does the source give for O=c1c2ccccc2n(Cc2ccccc2Cl)c(=O)n1CCc1ccccc1 here?
**A.** inconclusive: 2.5% [signal inhibitor]

**Q.** With CCCN(CCC)C(=O)Cn1c(=O)n(-c2ccc(CC)cc2)c(=O)c2ccc(C(=O)NCCc3ccccc3)cc21 as the compound, how does the “IkBa stabilization activation” value read?
**A.** inactive: -2.39%

**Q.** With CCCCCOc1ccc(Cn2c(=O)oc3ccccc32)cc1 as the compound, how does the IkBa stabilization activation read?
**A.** inconclusive: -2.95% [signal inhibitor]

**Q.** Which IkBa stabilization activation does the source give for CC(C)(C)OC(=O)N1CCC(c2c(C(=O)NC3CCN(Cc4ccccc4)CC3)cnn2-c2ccc(F)cc2F)CC1 here?
**A.** inconclusive: 0.739% [signal inhibitor]

**Q.** For Cc1ccc(NC(=O)C2CCCN(S(=O)(=O)c3ccc4c(c3)oc(=O)n4C)C2)cc1Cl (stereo not given), which IkBa stabilization activation is on record?
**A.** inconclusive: 0.734% [signal inhibitor]

**Q.** For COc1ccc(-c2cc(C(=O)NCCc3ccccc3)c3c(-c4ccccc4)[nH]nc3n2)cc1OC, which “IkBa stabilization activation” value is on record?
**A.** inactive: 7.8%

**Q.** Which “IkBa stabilization activation” value does the source give for CCOc1ccc(N2C(=O)CC(SCCN)C2=O)cc1 (stereo not given) here?
**A.** inactive: -0.301%

**Q.** With Cc1ccc(-c2noc(CCC(=O)N3CCCc4ccccc43)n2)cc1 as the compound, how does the IkBa stabilization activation read?
**A.** inconclusive: 3.68% [signal inhibitor]

**Q.** For O=C(Nc1ccc(Nc2ccccc2)cc1)C1CC1, which “IkBa stabilization activation” value is on record?
**A.** inactive: 4.38%

**Q.** With COc1ccc(NC(=O)c2c(NCc3sccc3C)sc3c2CCCC3)c(OC)c1 as the compound, how does the IkBa stabilization activation read?
**A.** inconclusive: 3.14% [signal inhibitor]

**Q.** Which IkBa stabilization activation does the source give for CCCOc1ccc(CN(C(=O)Cc2coc3ccc(CC)cc23)C2CCS(=O)(=O)C2)cc1 (stereo not given) here?
**A.** inconclusive: -0.571% [signal inhibitor]

**Q.** Which IkBa stabilization activation does the source give for O=S(=O)(Nc1nnc(-c2ccccc2)s1)c1ccc(Cl)cc1 here?
**A.** inconclusive: 4.49% [signal inhibitor]

**Q.** With CCN1CCN(C(=O)c2cc3c(-c4ccc(Cl)cc4)nn(C)c3s2)CC1 as the compound, how does the “IkBa stabilization activation” value read?
**A.** inactive: -0.502%

**Q.** Which “IkBa stabilization activation” value does the source give for Cc1cc(NCCN2CCOCC2)n2nc(C)c(-c3ccc(Cl)cc3)c2n1 here?
**A.** inactive: -0.903%

**Q.** For Cc1ccc(NC(=O)CN2CCN(S(=O)(=O)c3ccc(C(C)C)cc3)CC2)cc1F, which IkBa stabilization activation is on record?
**A.** inconclusive: -1.11% [signal inhibitor]

**Q.** For COc1ccc(Nc2nc(N)nc(N)c2S(=O)(=O)c2ccccc2)cc1, which “IkBa stabilization activation” value is on record?
**A.** inactive: -0.724%

**Q.** With CCC1=Nc2cc(C(=O)NC3CCC(C)CC3)ccc2Sc2ccc(C)cc21 (stereo not given) as the compound, how does the Potency read?
**A.** inconclusive: 2510 nM [signal activator]

**Q.** With COc1ccc(C2/C(=C(\O)c3ccc(OC)c(Cl)c3)C(=O)C(=O)N2CCN(C)C)cc1 (stereo not given) as the compound, how does the “IkBa stabilization activation” value read?
**A.** inactive: -0.0621%

**Q.** For CCC1CN(C(=O)N2CCC(C(=O)NCc3cccc(OC)c3OC)CC2)c2cc(C)ccc2O1 (stereo not given), which IkBa stabilization activation is on record?
**A.** inconclusive: 1.68% [signal inhibitor]

**Q.** With CC(C)c1ccc(NC(=O)c2ccc(F)c(S(=O)(=O)N3CCc4ccccc43)c2)cc1 as the compound, how does the IkBa stabilization activation read?
**A.** inconclusive: -0.134% [signal inhibitor]

**Q.** With O=C(CSc1ncnc2ccccc12)Nc1ccc2c(c1)OCO2 as the compound, how does the IkBa stabilization activation read?
**A.** inconclusive: 2.21% [signal inhibitor]

**Q.** With COc1ccccc1NC(=O)c1sc2nc(C)c(C(=O)Nc3ccc(C)cc3C)c(-c3ccco3)c2c1N as the compound, how does the IkBa stabilization activation read?
**A.** inconclusive: 6.23% [signal inhibitor]

**Q.** Which IkBa stabilization activation does the source give for O=C(C1CCCN(S(=O)(=O)c2cccc3nsnc23)C1)N1CCN(c2ccccc2F)CC1 (stereo not given) here?
**A.** inconclusive: 1.8% [signal inhibitor]

**Q.** With O=C(COC(=O)CCC(=O)c1ccc2c(c1)OCCO2)NCc1ccc2c(c1)OCO2 as the compound, how does the “IkBa stabilization activation” value read?
**A.** inactive: 4.35%

**Q.** For CCC(C)NC(=O)CSc1nc2n[nH]c(C)c2c(=N)n1-c1cc(Cl)ccc1C (stereo not given), which IkBa stabilization activation is on record?
**A.** inconclusive: -2.89% [signal inhibitor]

**Q.** With COc1ccccc1CNC(=O)c1cc2sccc2n1Cc1ccc(Cl)cc1 as the compound, how does the IkBa stabilization activation read?
**A.** inconclusive: 1.73% [signal inhibitor]

**Q.** Which IkBa stabilization activation does the source give for COc1ccc(NC(=O)CSc2ccc3nc(-c4ccccc4)cn3n2)c(OC)c1 here?
**A.** inconclusive: 1.93% [signal inhibitor]

**Q.** Which IkBa stabilization activation does the source give for Cc1ccccc1NC(=O)CSc1nc2ccc(NC(=O)c3cccs3)cc2s1 here?
**A.** inconclusive: -0.275% [signal inhibitor]

**Q.** With Cc1ccc(NC(=O)c2ccc3[nH]c(C)cc(=O)c3c2)cc1 as the compound, how does the “IkBa stabilization activation” value read?
**A.** inactive: -1.19%

**Q.** For CSc1cccc(NC(=O)c2cccc(N3CCCS3(=O)=O)c2)c1, which IkBa stabilization activation is on record?
**A.** inconclusive: -0.0302% [signal inhibitor]

**Q.** For CCOc1ccc(S(=O)(=O)Nc2cccc(-c3ccc(OCC)nn3)c2)cc1, which IkBa stabilization activation is on record?
**A.** inconclusive: 3.82% [signal inhibitor]

**Q.** For O=C(Nc1ccc(F)cc1C(F)(F)F)C1CCN(c2ncccn2)CC1, which “IkBa stabilization activation” value is on record?
**A.** inactive: -1.21%

**Q.** For Cc1cc(C)c2oc(C(=O)Nc3ccc(S(=O)(=O)N4CCCCCC4)cc3)cc(=O)c2c1, which “IkBa stabilization activation” value is on record?
**A.** inactive: 2.05%

**Q.** Which IkBa stabilization activation does the source give for Cc1cccc(NC(=O)COC(=O)CCCC2=NS(=O)(=O)c3ccccc3N2)c1 here?
**A.** inconclusive: 1.7% [signal inhibitor]

**Q.** With Cc1nc2c(C(=O)N3CCN(c4ccccn4)CC3)cnn2c(C)c1Cc1cccc(Cl)c1 as the compound, how does the IkBa stabilization activation read?
**A.** inconclusive: 0.633% [signal inhibitor]

**Q.** For Cc1cccc(N2CCN(C(=O)Cc3c(C(=O)O)c(C)cn3C)CC2)c1C, which “IkBa stabilization activation” value is on record?
**A.** inactive: -0.371%

**Q.** Which “IkBa stabilization activation” value does the source give for O=c1oc2ccccc2n1Cn1c(=O)oc2ccccc21 here?
**A.** inactive: 0.502%

**Q.** With COCc1nn2cc(-c3ccc(C)cc3)nc2s1 as the compound, how does the “IkBa stabilization activation” value read?
**A.** inactive: 15.3%

**Q.** With C=CCn1c(SCC(=O)Nc2cc(C)c(Cl)cc2OC)nnc1-c1ccco1 as the compound, how does the IkBa stabilization activation read?
**A.** inconclusive: 1.33% [signal inhibitor]

**Q.** With Cc1cc2c(cc1NC(=O)c1ccccc1C)n(C)c(=O)c(=O)n2C as the compound, how does the “IkBa stabilization activation” value read?
**A.** inactive: -1.06%

**Q.** For COc1ccc(CCNC(=O)CCCn2c(=O)c3cccn3c3ccccc32)cc1OC, which IkBa stabilization activation is on record?
**A.** inconclusive: 4.49% [signal inhibitor]

**Q.** Which IkBa stabilization activation does the source give for CCCc1[nH]nc2c1C(/C(C)=C/c1ccccc1)C(C#N)=C(N)O2 (stereo not given) here?
**A.** inconclusive: 1.54% [signal inhibitor]

**Q.** For O=C(CSc1n[nH]c(-c2ccco2)n1)Nc1sc2c(c1C(=O)Nc1ccccc1)CCCC2, which IkBa stabilization activation is on record?
**A.** inconclusive: 9.73% [signal inhibitor]

**Q.** With O=C(OCc1nnc(-c2ccccc2)o1)c1cc(S(=O)(=O)N2CCOCC2)c(Cl)cc1Cl as the compound, how does the IkBa stabilization activation read?
**A.** inconclusive: 1.76% [signal inhibitor]
